# From PubChem BioAssay AID1671193 (National Center for Advancing Translational Sciences (NCATS), 2021)
# Hit rate of the full screen: of about 150,000 compounds, about 180 (0.12%) were called active. Inconclusive results, whose numbers are uncertain, are shown with a selection of clear calls. The call rests on the fitted dose curve; in most records, active means well fitted cell-killing curve with a large enough effect; inconclusive means small, poorly fitted or top-dose-only effect, or effect the other way; inactive means flat fitted curve, though single readings scatter. Potencies of inconclusive entries are doubtful fits and often do not repeat.
# Test: GF-AFC viability counterscreen for inhibitors of alpha-synuclein gene (SNCA) expression; further: nearly all actives have a fitted effect of over 30% in size
# Conditions: HEK-293-SNCA-luc viability, GF-AFC fluorescence, 24 h; series mostly up to 57.1 µM
# Outline: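 HEK-293-SNCA-luc cells (1500/well) plated 24 h, then exposed 24 h to a dilution series; GF-AFC added 30 min at 37C, fluorescence 405/540 nm; normalised to medium-only and DMSO wells, Hill fit.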
# Potency means the concentration at half of the fitted maximal effect; tags describe the fitted curve by direction and shape.
row,SMILES,Potency
1,COc1ccc(-c2nc3ccccc3o2)cc1NC(=O)c1cc(Br)ccc1OC,inactive
2,O=c1oc2c(CN3CCOCC3)c(O)ccc2cc1-c1ccccc1,"inconclusive: 28.2 µM [rising, partial curve]"
3,CS(=O)(=O)c1ccc(CN2CCC[C@H]2c2nc(-c3ccnc(N4CCC(C(N)=O)CC4)c3)no2)cc1,inactive
4,CCC1CCCCN1CCCNC(=O)c1ccc2c(c1)N(Cc1cccc(Cl)c1)C(=O)c1ccccc1S2(=O)=O (stereo unspecified),"inconclusive: 31.6 µM [cytotoxic, single point]"
5,Cc1nnsc1C(=O)N[C@H]1CCN2C(=O)N(c3ccc(F)c(Cl)c3)C(=O)[C@@H]2C1,inactive
6,CC(C)(C)CN1CCNc2cc(Nc3ccccc3)ncc2C1,inactive
7,CCCCc1cc(C[C@H]2CNCC[C@H]2CC(=O)N(C)Cc2ccccc2)no1,inactive
8,O=C(NCc1ccc(F)cc1)c1nc(-c2cccc(C(F)(F)F)c2)c2cnccn12,inactive
9,CN(Cc1ccccc1)C(=O)c1ccc(CSc2nc3cccnc3n2Cc2ccccc2)cc1,"inconclusive: 28.2 µM [cytotoxic, partial curve]"
10,CC(C)c1ccc(CC(=O)N2CCCc3ncc(C(=O)N4CCCC[C@@H]4Cc4ccccc4)cc32)cc1,"inconclusive: 39.8 µM [cytotoxic, partial curve, poor fit]"
11,Cc1cn2nc(C(=O)NCCc3cccs3)cc2c(N2CCSCC2)n1,inactive
12,CCn1cc(CN2C[C@@H](CO)[C@H](NC(=O)COC)C2)c2ccccc21,"inconclusive: 7.08 µM [cytotoxic, single point]"
13,c1coc(-c2ccnc3ncnn23)c1,inactive
14,O=C(NCCO)c1ccc(-c2nnc(Nc3ccc(OC(F)(F)Cl)cc3)c3ccccc23)cc1,"inconclusive: 3.55 µM [cytotoxic, full curve, poor fit]"
15,O=C(Cn1cc(S(=O)(=O)Cc2ccccc2F)c2ccccc21)Nc1ccc(F)c(Cl)c1,"inconclusive: 31.6 µM [cytotoxic, partial curve, poor fit]"
16,Cc1cc(SCC(=O)Nc2ccc(F)cc2F)nc(=O)[nH]1,"inconclusive: 39.8 µM [cytotoxic, single point]"
17,CCc1cc(N2CCOCC(O)(CN3CCCC3)C2)nc(N2CCCC2)n1 (stereo unspecified),"inconclusive: 39.8 µM [cytotoxic, single point]"
18,CCN1C(=O)CCN(C(=O)CCc2ccc(OC)cc2)CC12CCOCC2,"inconclusive: 8.91 µM [cytotoxic, single point]"
19,COc1ccc(Nc2nccc3c(=O)cc(N4CCOCC4)oc23)cn1,"inconclusive: 12.6 µM [cytotoxic, single point]"
20,CCn1c(CNC(=O)c2ccc(OC)cc2)nnc1SCC(=O)Nc1cccc(C)c1,"inconclusive: 10 µM [cytotoxic, partial curve, poor fit]"
21,O=C(CSc1nc(-c2cccs2)nc2cc(=O)[nH]n12)Nc1ccccc1F,"inconclusive: 0.447 µM [rising, full curve, poor fit]"
22,CCOc1ccc(-c2nc(SCC(=O)NC3CCCC3)c(-c3ccccc3)[nH]2)cc1OC,"inconclusive: 35.5 µM [cytotoxic, single point]"

row,SMILES,Potency
1,COc1cccc(-c2nc(SCC(=O)NC3CCCC3)c(-c3ccccc3)[nH]2)c1,"inconclusive: 28.2 µM [cytotoxic, single point]"
2,COc1ccccc1Nc1ccnc(N2CCN(C(=O)c3cccc(Cl)c3)CC2)n1,inactive
3,O=C(c1ccc(Cl)cc1)N1CC2(CCCN(Cc3cccnc3)C2)Cc2ccccc21 (stereo unspecified),"inconclusive: 39.8 µM [cytotoxic, single point]"
4,CCCC1=Nc2cc(C(=O)NCCc3ccccc3)ccc2Sc2ccc(C)cc21,"inconclusive: 4.47 µM [cytotoxic, full curve, poor fit]"
5,COc1ccccc1CN1Cc2cc(NC(=O)c3ccc(Cl)cc3)ccc2OC(C)C1=O (stereo unspecified),inactive
6,COc1ccc(CNCCC(c2ccccc2)c2ccc3c(c2)OCO3)cc1 (stereo unspecified),"inconclusive: 39.8 µM [cytotoxic, single point]"
7,NC(=O)c1nc(CN2CCCC(C(=O)Nc3cccc(-n4cccn4)c3)C2)no1 (stereo unspecified),inactive
8,CCN(Cc1ccncc1)C(=O)CCC[C@@H]1[C@H]2CCCN3CCC[C@@H](CN1Cc1cccnc1)[C@@H]23,inactive
9,Fc1ccc(N2CCN(c3nc(-c4ccccc4F)no3)CC2)cc1,"inconclusive: 1.58 µM [rising, full curve, poor fit]"
10,COc1ccc(Cc2nc3nccc(-c4cccc(OC)c4)n3n2)cc1,inactive
11,C=C[C@](C)(CC/C=C(\C)C(=O)O)O[C@@H]1OC[C@H](O)[C@H](O)[C@H]1O,"inconclusive: 5.85 µM [cytotoxic, single point]"
12,CCOc1ccc(NC(=O)CN2C(=O)COc3ccc(S(=O)(=O)NC4CCCC4)cc32)cc1,"inconclusive: 12.6 µM [cytotoxic, partial curve, poor fit]"
13,COc1cc(NC(=O)CSc2nc3nc(C)c(Cc4ccc(C)cc4)c(C)n3n2)cc(OC)c1OC,"inconclusive: 28.2 µM [cytotoxic, single point]"
14,Cc1cccc(C(=O)N2CCCN(c3cc(-c4ccc(Cl)cc4)[nH]n3)CC2)c1,inactive
15,CN(C)C[C@@H]1CN(Cc2ccccc2)C[C@H]1NC(=O)c1ccn(C)n1,inactive
16,COC(=O)c1sccc1S(=O)(=O)N(CC(=O)Nc1c(C)cccc1C)c1ccc(C)c(C)c1,"inconclusive: 35.5 µM [cytotoxic, partial curve, poor fit]"
17,COc1ccc(-n2nc3n(c2=O)CCN(C(=O)c2ccc(C)cc2)C3)cc1,inactive
18,CCOc1cc2ncc(C#N)c(Nc3ccc(F)c(Cl)c3)c2cc1NC(=O)/C=C/CN(C)C,"inconclusive: 16.8 µM [cytotoxic, partial curve, poor fit]"
19,COc1ccc(C)cc1NC(=O)Cn1c(=O)ccc2cc(S(=O)(=O)N3CCC(C)CC3)ccc21,"inconclusive: 7.08 µM [rising, full curve, poor fit]"
20,O=C(NC1CCNCC1)c1cc(C2CC2)nc2onc(C3CCNC3)c12 (stereo unspecified),inactive
21,O=C1CC2(CCN(C(=O)C3CCN(C(=O)c4ccc(Cl)nc4)CC3)CC2)Oc2ccccc2N1,inactive
22,Cc1ccc(CN2CCN(C(=O)c3ccc4c(c3)C(O)CCCCCN4C)CC2)cc1 (stereo unspecified),inactive

row,SMILES,Potency
1,Cn1nc2n(c1=O)CCN(C(=O)c1ccc(F)cc1Cl)CC2,inactive
2,COc1ccc(-c2nc3scc(CCNS(=O)(=O)c4ccc(NC(C)=O)cc4)n3n2)cc1,"inconclusive: 22.4 µM [cytotoxic, single point]"
3,COCCNc1nc2c([S+](=O)([O-])c3ccc(OC)cc3)nnn2c2ccccc12,inactive
4,COc1cccc(Cn2c(=O)cnc3cnc(Nc4cccc(OC)c4)nc32)c1,"inconclusive: 25.1 µM [cytotoxic, partial curve, poor fit]"
5,Cc1ccccc1Nc1cnc2ccc(N3CCOCC3)nn12,inactive
6,COc1ccc(C)cc1N(C)C(=O)c1c2c(nc3ccccc13)C(=O)N(C1CCCCC1)C2,"inconclusive: 20 µM [cytotoxic, partial curve, poor fit]"
7,COc1ccccc1/C=C/c1nc(C#N)c(NCCc2ccccc2)o1,"inconclusive: 17.8 µM [rising, partial curve]"
8,CC(NC(=O)CN1C(=O)COc2ccc(C(=O)COc3ccc(F)cc3F)cc21)c1ccccc1 (stereo unspecified),"inconclusive: 10 µM [cytotoxic, partial curve]"
9,COCCNC(=O)c1nc2sccn2c1-c1cccnc1,inactive
10,CCCCN1C(C(=O)c2ccccc2)=C(OC(C)=O)c2ccccc2S1(=O)=O,"inconclusive: 22.4 µM [cytotoxic, single point]"
11,C=C1C(=O)O[C@@H]2C[C@@H](C)[C@]34C[C@]5(C(=O)O[C@H]6CC(C)=C([C@H](C)CCCO)[C@H](OC(=O)C(C)CC)[C@H]65)[C@@H](C(C)=C3C[C@@H]12)[C@H]4OC(C)=O (stereo partly specified),"inconclusive: 7.07 µM [cytotoxic, single point]"
12,COc1cccc(CCNC(=O)c2c(C)noc2-c2ccc3c(c2)OCO3)c1,inactive
13,COc1ccc(NC(=O)c2c(NC(=O)c3ccc(Br)cc3)sc3c2CCCC3)cc1,"inconclusive: 31.6 µM [cytotoxic, partial curve, poor fit]"
14,CCc1ccc(CN2C[C@@H]3C(=O)N(CCCN4CCCC4=O)C(=O)[C@@H]3C2)cc1,"inconclusive: 39.8 µM [cytotoxic, single point]"
15,N#Cc1cccc(-c2ccnc(N[C@H]3CO[C@H]4[C@@H]3OC[C@H]4OC(=O)Nc3cccc(C(F)(F)F)c3)n2)c1,"inconclusive: 28.2 µM [cytotoxic, single point]"
16,O=C(c1ccccc1OC1CN(Cc2cccc(C(F)(F)F)c2)C1)N1CCOCC1,inactive
17,Cn1cccc1C(=O)N1CCC2(CC1)CCN(c1cccc(-c3ccccc3)c1)CC2,"inconclusive: 3.98 µM [cytotoxic, single point]"
18,Cc1cccc(-n2nc(-c3c(C)nc4scc(CC(=O)NCCC(C)C)n4c3=O)cc2C)c1,inactive
19,CCN(CC)CCNC(=O)c1ccc(Cn2c(SCc3ccccc3)nc3cccnc32)cc1,"inconclusive: 12.6 µM [cytotoxic, partial curve]"
20,CN(C)c1cccc(C(=O)N2CCN(c3cc(-c4ccc(Cl)cc4)[nH]n3)CC2)c1,inactive
21,Cc1ccc(-c2cc3c(=O)n(CCNC(=O)c4ccc(N(C)C)cc4)ccn3n2)c(C)c1,inactive
22,COc1ccc(CN2C[C@@H]3C[C@H]2C(=O)N(Cc2ccccn2)c2ccccc2O3)cc1,"inconclusive: 31.6 µM [cytotoxic, partial curve, poor fit]"
